These are yes or no findings as the source states them, for the method shown. Binding seen in cells or lysates may run through a third protein. Some results given as binding are weak or reduced against the parent protein; the word gives no strength. For some of these results: Sequences can lack the tags named with a protein.
T1: RHBDD1 with FLAG and SBP epitopes knocked in at the COOH terminus (endogenous locus, HCT116) (human (endogenous in HCT116)) (UniProt Q8TEB9)
T1 sequence: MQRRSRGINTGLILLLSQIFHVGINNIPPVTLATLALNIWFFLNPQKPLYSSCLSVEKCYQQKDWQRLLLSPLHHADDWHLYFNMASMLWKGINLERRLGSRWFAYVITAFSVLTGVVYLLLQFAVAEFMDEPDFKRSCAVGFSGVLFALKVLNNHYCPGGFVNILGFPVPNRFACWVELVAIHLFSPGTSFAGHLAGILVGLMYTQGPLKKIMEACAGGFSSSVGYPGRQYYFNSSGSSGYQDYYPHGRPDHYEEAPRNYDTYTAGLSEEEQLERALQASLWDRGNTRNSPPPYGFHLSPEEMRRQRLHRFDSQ

Protein sequences, listed by entry. Tags and fused reporters are not part of them. Residues count along the entry.
UniProt P01135, residues 24-160: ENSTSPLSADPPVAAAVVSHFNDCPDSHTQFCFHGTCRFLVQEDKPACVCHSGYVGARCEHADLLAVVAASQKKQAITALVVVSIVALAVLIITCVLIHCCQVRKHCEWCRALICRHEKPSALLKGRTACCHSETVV
UniProt P01133, residues 23-1207: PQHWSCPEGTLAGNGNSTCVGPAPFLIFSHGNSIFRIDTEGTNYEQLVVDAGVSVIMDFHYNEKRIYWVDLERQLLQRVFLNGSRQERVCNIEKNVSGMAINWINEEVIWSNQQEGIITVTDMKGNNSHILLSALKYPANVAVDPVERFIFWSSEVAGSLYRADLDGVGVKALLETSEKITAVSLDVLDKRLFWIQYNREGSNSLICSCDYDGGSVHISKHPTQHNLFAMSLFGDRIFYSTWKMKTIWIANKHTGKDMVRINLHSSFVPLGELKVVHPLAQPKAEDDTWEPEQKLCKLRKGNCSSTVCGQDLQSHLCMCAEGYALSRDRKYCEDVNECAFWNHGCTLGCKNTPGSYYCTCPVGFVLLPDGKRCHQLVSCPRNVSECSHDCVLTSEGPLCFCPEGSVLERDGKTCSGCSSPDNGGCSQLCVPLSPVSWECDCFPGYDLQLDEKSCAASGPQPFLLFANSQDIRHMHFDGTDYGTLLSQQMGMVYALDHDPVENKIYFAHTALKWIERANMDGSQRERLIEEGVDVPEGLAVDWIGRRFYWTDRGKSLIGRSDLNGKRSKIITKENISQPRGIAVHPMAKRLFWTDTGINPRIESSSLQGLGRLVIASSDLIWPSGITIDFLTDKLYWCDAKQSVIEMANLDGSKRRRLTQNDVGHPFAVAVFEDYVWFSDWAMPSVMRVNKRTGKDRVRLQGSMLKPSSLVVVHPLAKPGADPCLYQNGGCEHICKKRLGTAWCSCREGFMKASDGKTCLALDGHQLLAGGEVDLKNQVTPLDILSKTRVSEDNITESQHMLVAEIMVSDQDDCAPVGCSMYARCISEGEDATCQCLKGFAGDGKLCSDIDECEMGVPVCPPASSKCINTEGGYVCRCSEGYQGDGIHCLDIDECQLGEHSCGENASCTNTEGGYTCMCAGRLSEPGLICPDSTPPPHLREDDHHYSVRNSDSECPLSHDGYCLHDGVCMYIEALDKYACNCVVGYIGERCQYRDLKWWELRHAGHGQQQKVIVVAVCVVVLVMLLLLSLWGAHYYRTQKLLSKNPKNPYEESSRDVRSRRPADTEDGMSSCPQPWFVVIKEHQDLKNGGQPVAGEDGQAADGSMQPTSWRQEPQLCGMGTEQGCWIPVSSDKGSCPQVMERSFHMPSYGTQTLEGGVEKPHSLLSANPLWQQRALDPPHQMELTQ
UniProt Q99075, residues 20-208: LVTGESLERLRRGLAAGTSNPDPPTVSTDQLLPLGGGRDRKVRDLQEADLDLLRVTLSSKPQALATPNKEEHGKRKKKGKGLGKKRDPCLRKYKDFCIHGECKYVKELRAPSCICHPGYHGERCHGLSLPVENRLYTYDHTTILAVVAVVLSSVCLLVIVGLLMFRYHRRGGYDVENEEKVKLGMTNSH
UniProt O14944, residues 30-169: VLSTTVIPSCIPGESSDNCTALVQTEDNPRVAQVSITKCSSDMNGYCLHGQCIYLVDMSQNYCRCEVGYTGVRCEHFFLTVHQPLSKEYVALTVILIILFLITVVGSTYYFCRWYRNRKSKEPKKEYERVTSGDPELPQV

T2: RHBDD1wt-Myc (human) (UniProt Q8TEB9)
T2 sequence: T1 sequence

B1: RHBDD1 (endogenous, HCT116 cell lysates) (enzyme, UniProt Q8TEB9 1-315)
chain: T1 sequence
B2: betacellulin (V5-tagged expression construct) (ligand, UniProt P35070 32-178)
chain: DGNSTRSPETNGLLCGDPEENCAATTTQSKRKGHFSRCPKQYKHYCIKGRCRFVVAEQTPSCVCDEGYIGARCERVDLFYLRGDRGQILVICLIAVMVVFIILVIGVCTCCHPLRKRRKRKKKEEEMETLGKDITPINEDIEETNIA

Legend:
[1] = biological target: T1, RHBDD1 with FLAG and SBP epitopes knocked in at the COOH terminus (endogenous locus, HCT116) (human (endogenous in HCT116)); assay: co-IP; targeted knock-in HCT116 cell lysate (50 mM Tris-HCl pH 7.4, 100 mM NaCl, 0.5% NP-40, 1 mM EDTA); anti-FLAG M2 affinity gel or control IgG; immunoblot with anti-proTGFα or anti-FLAG
RHBDD1wt-Myc (human) = biological target: T2, RHBDD1wt-Myc (human); assay: co-IP; HEK293T cells transiently co-transfected, 48 h; lysis in 50 mM Tris-HCl pH 7.4, 150 mM NaCl, 1% NP-40, 1 mM EDTA, 10% glycerol; anti-V5 or anti-Myc affinity gel (bidirectional); immunoblot with anti-Myc or anti-V5
GST-proTGFα = GST-proTGFα (UniProt P01135); assay: pull-down; 2 μg purified GST-proTGFα or GST immobilized on glutathione-Sepharose beads, mixed with 400 μg HCT116 cell lysate (50 mM Tris-HCl pH 7.4, 150 mM NaCl, 1% NP-40, 1 mM EDTA), 2 h at 4 °C; immunoblot with anti-RHBDD1; only the target purified

Row | Molecule | binding (RHBDD1wt-Myc (human)) | also measured
1 | endogenous proTGFα (from UniProt P01135 24-160) (ligand) |  | binding [1]: binds
2 | EGF (V5-tagged expression construct) (from UniProt P01133 23-1207) (ligand) | no binding | 
3 | proTGFα-V5 (from UniProt P01135 24-160) (ligand) | binds | 
4 | HB-EGF (V5-tagged expression construct) (from UniProt Q99075 20-208) (ligand) | no binding | 
5 | epiregulin (V5-tagged expression construct) (from UniProt O14944 30-169) (ligand) | no binding | 
6 | B1 |  | binding (GST-proTGFα): binds
7 | B2 | no binding | 
